Source: PubChem BioAssay AID1240 (Sanford-Burnham Center for Chemical Genomics, 2008)
In all, about 50,000 compounds went through this assay and about 800 (1.6%) showed an effect of 50% or more. Some of the results follow.

Target: Bcl-2-like protein 10 (Homo sapiens) (UniProt Q9HD36)
Assay: Phenotype converters, Bcl-B/TR3 peptide binding displacement, primary biochemical FP (AID 1240);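 also: 0% = Bcl-B with tracer peptide and DMSO and 100% = tracer peptide lacking Bcl-B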
Settings: GST-Bcl-B / FITC-TR3 peptide fluorescence polarization; stronger effect = higher value; compound at 3.75 mg/L

Sequence of UniProt Q9HD36 (Q9HD36 whole entry, looked up): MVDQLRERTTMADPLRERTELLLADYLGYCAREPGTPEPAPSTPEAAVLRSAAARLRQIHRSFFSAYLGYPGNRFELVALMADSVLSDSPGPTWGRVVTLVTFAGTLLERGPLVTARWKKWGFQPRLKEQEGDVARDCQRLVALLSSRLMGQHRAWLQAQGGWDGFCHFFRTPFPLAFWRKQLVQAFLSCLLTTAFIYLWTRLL

Going from `CCc1ccccc1N(CC(=O)NC(C)c1ccccc1)S(C)(=O)=O` (stereo not given) to `COC(=O)CN(c1ccccc1OC)S(=O)(=O)c1ccccc1`, the displacement rises from -3.1% to 9.4%.

Compared with `Cc1[nH]c2ccccc2c1/C=C/c1nc2ccccc2c(=O)n1-c1ccc([N+](=O)[O-])cc1`, `COc1ccc2c(c1)c(/C=C/c1nc3ccccc3c(=O)n1-c1cccc([N+](=O)[O-])c1)c(C)n2C` is lower in displacement: -1.5% for the first, -5.1% for the second.

Going from `COc1cccc2cc(-c3nc(-c4cccc(Br)c4)cs3)c(=O)oc12` to `Cc1cccc(-c2noc(-c3cccc([N+](=O)[O-])c3C)n2)c1`, the displacement rises from 8.2% to 78.9%.

First: COc1ccc(CCNC(=O)COc2ccccc2OC)cc1
Second: COc1ccc(OC)c(N(CC(=O)Nc2ccccc2Cl)S(C)(=O)=O)c1
The displacement of the first is higher: 4.3% for the first, -0.4% for the second.

Going from `Cc1ccc(C2C3C(=O)N(c4cccc(Br)c4)C(=O)C3N3CCCN23)cc1` (stereo not given) to `COc1ccc(N2C(=O)C3C4C=CC(C4=C4CCCC4)C3C2=O)cc1` (stereo not given), the displacement rises from -7.4% to -4.3%.

Compared with `O=C(O)CCCCCN1C(=O)C(=O)/C(=C(/O)c2ccc(F)cc2)C1c1cccc(F)c1` (stereo not given), `O=C(O)CCCCCN1C(=O)C(=O)/C(=C(/O)c2ccc(Cl)cc2)C1c1cccc([N+](=O)[O-])c1` (stereo not given) is lower in displacement: 0% for the first, -13.2% for the second.

First: COc1c(Cl)cc(C(=O)Nc2c(C)cccc2C)cc1Cl
Second: O=C(Nc1cccc(F)c1)c1ccc(Cl)cc1Cl
The displacement of the first is lower: 6.7% for the first, 10.3% for the second.

Going from `Cc1ccc(OCC(=O)N2CCOCC2)c(Br)c1` to `Cc1ccc(OCC(=O)O/N=C(\N)Cc2ccc([N+](=O)[O-])cc2)c(Br)c1`, the displacement falls from 3.3% to -13.2%.

Going from `COc1ccccc1C1C(C(=O)Nc2ccccc2)=C(C)NC(C)=C1C(=O)Nc1ccccc1` to `COc1ccc(/C=C(\NC(=O)c2ccccc2)C(=O)Nc2cccc(C)c2)cc1OC`, the displacement falls from 11.7% to -4.2%.

First: CCN(CC)C(=O)c1sc(NC(=O)c2cc(OC)cc(OC)c2)c(C(=O)OC)c1C
Second: CC(=O)NC1=NN(C(C)=O)C(C)(c2cccc(OC(=O)c3ccccc3)c2)S1 (stereo not given)
The displacement of the first is lower: -7% for the first, -4.7% for the second.

First: Cc1ccc2[nH]c(=O)c(C(=O)/C=C\c3ccc(Br)cc3)c(-c3ccccc3)c2c1
Second: Oc1ccccc1Nc1nnc(-c2ccccc2)c2ccccc12
The displacement of the first is higher: -2.7% for the first, -45.2% for the second.

First: O=C(N/N=C/c1ccc(O)c(I)c1)c1ccncc1
Second: CC(C)(C)c1ccc(C2=N/C(=C\c3cccnc3)C(=O)O2)cc1
The displacement of the first is higher: 0.3% for the first, -2.2% for the second.

Going from `CCOc1cc(Br)cc(/C=C2/SC(=S)NC2=O)c1O` to `C=CCN1C(=O)/C(=C/c2ccccc2OCc2ccccc2Cl)SC1=S`, the displacement rises from -10.5% to 11.6%.

Compared with `COc1cc(/C=c2/sc3nc4ccccc4n3c2=O)ccc1OCc1nn[nH]n1`, `C=CCOc1ccc(/C=C2\SC(=S)N(c3ccc([N+](=O)[O-])cc3)C2=O)cc1OC` is higher in displacement: 5.2% for the first, 8% for the second.

Going from `Cc1ccc(C2(C)N(O)C(C)C(c3ccccc3)=[N+]2[O-])cc1` (stereo not given) to `Cc1ccccc1C1(c2ccccc2C)CC1C(=O)Nc1cccc(Cl)c1` (stereo not given), the displacement falls from 8.5% to -0.6%.

First: O=C(Cc1ccccc1)NNC(=O)c1cccs1
Second: O=C(NNC(=O)c1ccc(Cl)cc1Cl)c1ccco1
The displacement of the first is higher: -4% for the first, -11.4% for the second.

Going from `CCOc1ccc(NC(=S)NC(NC(=O)N(C)C)C(Cl)(Cl)Cl)cc1` (stereo not given) to `COc1ccc(N(CC(=O)O)S(C)(=O)=O)cc1`, the displacement rises from -15.3% to 11.2%.

First: O=C(Nc1ccc2c(c1)OCCO2)C(c1ccccc1)c1ccccc1
Second: CC(C)c1ccccc1NS(=O)(=O)c1ccccc1
The displacement of the first is higher: 9.2% for the first, -4.2% for the second.

First: Cc1cc(/C=C2/NC(=S)NC2=O)c(C)n1-c1cccc(Cl)c1
Second: O=C1NC(=S)N/C1=C\c1ccccc1OCc1ccc([N+](=O)[O-])cc1
The displacement of the first is lower: -12.9% for the first, 27.8% for the second.

Going from `Fc1ccc(C=NN2CCN(Cc3ccccc3)CC2)cc1` to `COc1ccccc1N1CCN(C(=O)c2ccccc2I)CC1`, the displacement rises from 5.3% to 6.5%.

Going from `CCC(=O)N1CCN(c2nc3ccc([N+](=O)[O-])cc3s2)CC1` to `O=C(NC1CCCCC1)C1CC(=O)N(c2cccc([N+](=O)[O-])c2)C1` (stereo not given), the displacement rises from -8.8% to -8.3%.

Going from `O=C1c2ccccc2-c2onc3ccc(NC4CCCCC4)c1c23` to `O=C(Nc1ccc2nsnc2c1Br)c1sc2ccccc2c1Cl`, the displacement falls from 59.4% to 2.3%.

Compared with `O=C(NCCCn1ccnc1)c1ccc(Br)o1`, `O=C(CCN1CCCC1)NCC1COc2ccccc2O1` (stereo not given) is lower in displacement: -6.5% for the first, -8.3% for the second.

Compared with `COc1ccc2c(c1)C1=NN(/C(C)=C/C(C)=O)C(c3ccc(Br)cc3)C1CC2` (stereo not given), `O=[N+]([O-])c1ccc(C=Nc2ccc(Oc3ccccc3)cc2)s1` is lower in displacement: 7.3% for the first, 1% for the second.

First: CCOc1ccccc1C1NC(=O)c2c(sc3c2CCN(C)C3)N1 (stereo not given)
Second: CCc1cc2c(=O)c(-c3nc4ccccc4s3)c(C)oc2cc1OS(C)(=O)=O
The displacement of the first is higher: 2% for the first, -0.2% for the second.

First: O=C(NN1C(=O)c2ccccc2C1=O)c1ccc2c(c1)C(=O)N(c1nccs1)C2=O
Second: O=c1c2ccccc2nc2n1S(=O)(=O)c1ccccc1-2
The displacement of the first is higher: 7.2% for the first, -6.5% for the second.

Compared with `O=C(NCCCCOc1ccccc1)C(O)(c1ccc(Cl)cc1)c1ccc(Cl)cc1`, `CCOCCOC(=O)c1ccc(NC(=O)COc2ccc([N+](=O)[O-])cc2)cc1` is lower in displacement: -3.5% for the first, -4.5% for the second.

`C=CCC(C)(CC=C)NS(=O)(=O)c1ccc(NC(C)=O)cc1` showed a displacement of 0.7%.
